Inconclusive means that the source gave no clear call. Such entries were picked first, then a sample of the others. Potencies of inconclusive entries are left out as doubtful fits. The source made the active and inactive calls. Calls follow the shape of the dose curve; as a rule, active = well fitted inhibition curve with a large enough effect; inconclusive = small, poorly fitted or top-dose-only effect; inactive = no such curve, though single readings can be large or run the other way.
What follows are compounds tested against Retinal dehydrogenase 2 (Homo sapiens) (UniProt O94788) (assay: qHTS for Inhibitors of the Aldehyde Dehydrogenase Family (ALDH1A2) Confirmation screens (AID 2061314; also: nearly all actives have a fitted effect of over 65% in size)). Details: ALDH1A2 enzyme inhibition qHTS confirmation; activity, negative = inhibition: at 45.9 µM (top of the series) unless noted; series mostly up to 45.9 µM.
% is scaled to controls: 0 for no effect and ±100 for the full control effect; potency is read from the fitted curve at half-maximal effect; tags tell the direction and shape of the fitted curve.

Compound | Potency | activity, negative = inhibition
O=C1CCc2cc(S(=O)(=O)Nc3cc(F)cc(Cl)c3)c(F)cc2N1 | inconclusive [inhibitor, partial curve] | –
Cc1cc(=O)oc2c(C=O)c(O)ccc12 | inconclusive [inhibitor, partial curve] | –
Nc1ncnc2c1ncn2[C@@H]1O[C@H](CN[S+](=O)([O-])NC(=O)c2cccc(-c3noc(-c4ccccc4F)n3)c2)[C@@H](O)[C@H]1O | active: 14.2 µM | –
COc1ccc(C2=Nn3c(nnc3-c3ccccc3O)SC2)cc1 | – | inactive: -18.9%
CC1(C)CCC2(C(=O)OC3OC(CO)C(O)C(O)C3O)CCC3(C)C(=CCC4C5(C)CCC(O)C(C)(C(=O)O)C5CCC43C)C2C1O (stereo not drawn) | – | inactive: -4.23% [at 16.7 µM]
COc1ccc(-n2c(C)c(C(C)=O)c3cc(OC(=O)COc4ccccc4)ccc32)cc1 | – | inactive: -7.75%
Cc1c(C(=O)N(C)CC2CCCO2)[nH]c2c1C(=O)CC(c1ccco1)C2 (stereo not drawn) | active: 12.7 µM | –
Cc1cccc(S(=O)(=O)NC2CCN(C#N)C2)c1 (stereo not drawn) | inconclusive [inhibitor, full curve] | –
CC(C)(C)Nc1nc(C#N)nc(Nc2ccccc2)n1 | inconclusive [inhibitor, partial curve] | –
CN1CCN(c2nn3c(=O)c4ccccc4nc3s2)CC1 | inconclusive [inhibitor, partial curve, poor fit] | –
CC(=O)N1CCN(c2ccc(NCc3ccc(C)cc3)cc2)CC1 | active: 11.3 µM | –
CC1CCN(c2ccc(CNC(=O)CC3CCOCC3)cc2)CC1 | inconclusive [inhibitor, partial curve] | –
Oc1cccc2cc(C3CC3)cnc12 | inconclusive [inhibitor, partial curve] | –
O=C(Nc1cccc(-c2ccc(N3CCOCC3)nn2)c1)Nc1cccc(C(F)(F)F)c1 | inconclusive [inhibitor, full curve, poor fit] | –
CCOC(=O)c1ccc(O)c2ncc(N3CCC(C(=N)N)CC3)cc12 | inconclusive [inhibitor, single point] | –
CC(=O)Nc1sc2c(c1-c1ccc(C(F)(F)F)cc1)CCNC2 | inconclusive [inhibitor, single point] | –
Cc1ccccc1C#Cc1ccc(CCC(=O)O)cc1 | – | inactive: -15.4%
OCc1cccc(-c2noc(-c3ccccc3F)n2)c1 | – | inactive: -22.4%
Cc1ccc(-c2no[n+]([O-])c2C#N)cc1 | inconclusive [inhibitor, partial curve] | –
CCCCC1CCN(CCCN2C(=O)CCc3ccccc32)CC1 | – | inactive: -2.34%
COc1cc2c3c(cc4ccccc4c3c1O)NC2=O | inconclusive [inhibitor, partial curve] | –
O=C(Cc1ccc(Cl)c(Cl)c1)Nc1ccc(S(=O)(=O)Nc2cccc(C(=O)O)c2)cc1 | inconclusive [inhibitor, partial curve] | –
Cc1cc(C)nc(NC(=S)N2CCN(c3cncc4ccccc34)CC2)c1 | inconclusive [inhibitor, full curve, poor fit] | –
